# This is one part of the list. Most values come without repeats; read them as rough.
# Assays:
# Assay in all cases: cell count relative to DMSO control; melanoma cells; higher = more viable cells
# Conditions in all cases: library dose: standard library concentration; 72 h; first compound 2 µM
# G361 = test system: G361
# IPC-298 = test system: IPC-298
# IST-MEL1 = test system: IST-MEL1
# LB2518-MEL = test system: LB2518-MEL
# LOXIMVI = test system: LOXIMVI
# MEL-HO = test system: MEL-HO
# MZ2-MEL = test system: MZ2-MEL
# MeWo = test system: MeWo
# RPMI7951 = test system: RPMI7951
# RVH-421 = test system: RVH-421
# SkMel28 = test system: SkMel28
# SkMel2 = test system: SkMel2
# SkMel30 = test system: SkMel30
# SkMel5 = test system: SkMel5
# UACC257 = test system: UACC257
# UACC62 = test system: UACC62
# WM115 = test system: WM115
# WM1716 = test system: WM1716
# WM1745 = test system: WM1745
# WM3526 = test system: WM3526
# 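Further: cells treated in 1,536-well plates, then fixed and DAPI-stained, with nuclei counted from automated high-throughput microscope images.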
SMILES,cell count (G361) [%],cell count (IPC-298) [%],cell count (IST-MEL1) [%],cell count (LB2518-MEL) [%],cell count (LOXIMVI) [%],cell count (MEL-HO) [%],cell count (MZ2-MEL) [%],cell count (MeWo) [%],cell count (RPMI7951) [%],cell count (RVH-421) [%],cell count (SkMel28) [%],cell count (SkMel2) [%],cell count (SkMel30) [%],cell count (SkMel5) [%],cell count (UACC257) [%],cell count (UACC62) [%],cell count (WM115) [%],cell count (WM1716) [%],cell count (WM1745) [%],cell count (WM3526) [%]
CCCCCCCCCCCCCCCCCCOP(=O)([O-])OC1CC[N+](C)(C)CC1 [Perifosine] + Clc1ccc(Nc2nnc(Cc3ccncc3)c3ccccc23)cc1 [vatalanib] (partner dose 10 µM),79.2,78.4,81.5,105,90.3,80.9,92.1,112,38.4,114,85.1,86.9,102,95.3,85.8,109,114,98.2,64.1,99.2
C[C@@H](N)c1ccc(C(=O)Nc2ccnc3[nH]ccc23)cc1 + Cn1c(Nc2ccc(C(F)(F)F)cc2)nc2cc(Oc3ccnc(-c4ncc(C(F)(F)F)[nH]4)c3)ccc21 [CHIR265] (partner dose 0.4 µM),23.5,48.5,81.5,21.2,101,58.7,34.4,70.2,19,36.6,22.2,58.2,52.9,38.9,59.1,41.1,59.8,53.9,39.4,47.4
CCCCCCCCCCCCCCCCCCOP(=O)([O-])OC1CC[N+](C)(C)CC1 [Perifosine] + COCC[n+]1c2c(n(Cc3cnccn3)c1C)C(=O)c1ccccc1C2=O [YM155] (partner dose 0.002 µM),92.2,61.2,43.6,34.4,45.9,95,30.3,69.4,25.6,104,50.3,53,84.2,43.2,23.9,63.2,97.9,64.5,89.7,46.4
CCCCCCCCCCCCCCCCCCOP(=O)([O-])OC1CC[N+](C)(C)CC1 [Perifosine] + C[C@@H](Oc1cc(-c2cnn(C3CCNCC3)c2)cnc1N)c1c(Cl)ccc(F)c1Cl [Crizotinib] (partner dose 1 µM),61.9,86.4,89,80.5,148,71.3,88.2,89,29.6,105,43,76.1,90.8,73,68.6,80.7,64.5,113,49.7,80.8
C[C@@H](N)c1ccc(C(=O)Nc2ccnc3[nH]ccc23)cc1 + NC(=O)c1ccc(N(C(N)=O)c2c(F)cccc2F)nc1-c1ccc(F)cc1F [VX702] (partner dose 2 µM),103,82.5,99.6,151,136,70.8,56,73.7,68.9,41.9,98.2,99.1,81.3,68.2,77.7,76.5,97.5,82.5,74.9,96
Cn1sc(=O)n(Cc2ccccc2)c1=O + CCN(CC)CCNC(=O)c1c(C)[nH]c(/C=C2\C(=O)Nc3ccc(F)cc32)c1C [sunitinib] (partner dose 2 µM),87.3,73.7,99.9,65.3,114,106,95,57.7,69.2,93.6,81.1,83.4,63.9,60,95.6,56.1,62.5,104,53.8,55.1
C[C@@H](N)c1ccc(C(=O)Nc2ccnc3[nH]ccc23)cc1 + Nc1nc(F)nc2c1ncn2[C@@H]1O[C@H](CO)[C@@H](O)[C@@H]1O [fludarabine] (partner dose 1 µM),81,71,65.1,116,52.9,72.7,69.2,76.8,45.4,42.3,0.758,0.493,9.17,17.7,33.3,43.7,120,61.7,70,26
Cn1sc(=O)n(Cc2ccccc2)c1=O + C[C@@H]1CCN(C(=O)CC#N)C[C@@H]1N(C)c1ncnc2[nH]ccc12 [CP690550] (partner dose 5 µM),96.3,96.3,94.2,94.2,110,96.4,117,89.2,94.2,94.5,121,100,97.3,83.5,101,71.3,97.6,121,77.4,102
Cn1sc(=O)n(Cc2ccccc2)c1=O + CC(=O)c1c(C)c2cnc(Nc3ccc(N4CCNCC4)cn3)nc2n(C2CCCC2)c1=O [palbociclib] (partner dose 0.2 µM),66.6,74.2,75,60.7,53.2,79.2,70,73.3,63.7,68.9,42.5,68.6,56.4,70.7,74.4,69.4,82.7,48,85,53.2
C[C@@H](N)c1ccc(C(=O)Nc2ccnc3[nH]ccc23)cc1 + Clc1ccc(Nc2nnc(Cc3ccncc3)c3ccccc23)cc1 [vatalanib] (partner dose 10 µM),75.9,68.6,76.2,93.1,89.4,32.5,43.2,70.6,52.6,29.5,75.7,90.8,104,45.5,56,58.4,98,49.8,44,92.7
Cn1sc(=O)n(Cc2ccccc2)c1=O + Nc1nc(F)nc2c1ncn2[C@@H]1O[C@H](CO)[C@@H](O)[C@@H]1O [fludarabine] (partner dose 1 µM),85.9,71.8,69.5,80.4,95.7,71.2,87.4,89,49.2,67.9,1.55,1.52,16.6,27.5,32.5,82.5,86.4,82.8,125,21.1
Cn1sc(=O)n(Cc2ccccc2)c1=O + COc1cc(Nc2ncc(F)c(Nc3ccc4c(n3)NC(=O)C(C)(C)O4)n2)cc(OC)c1OC [Tamatinib] (partner dose 2 µM),72.6,86.6,72,97.1,42.6,76.8,81.1,64.7,57,108,77.3,88.9,84.2,59.1,89.5,74.5,92.7,71.6,33.8,79
C[C@@H](N)c1ccc(C(=O)Nc2ccnc3[nH]ccc23)cc1 + COc1ccc(Cl)c(Nc2nc3ccccc3nc2NS(=O)(=O)c2cccc(NC(=O)C(C)(C)N)c2)c1 [XL147] (partner dose 4 µM),79,83.6,61.1,105,87.3,37.2,39.3,61.5,63.6,46.8,111,80.5,87.4,58.5,42.5,91.3,89.4,63.5,44.9,82.2
CCCCCCCCCCCCCCCCCCOP(=O)([O-])OC1CC[N+](C)(C)CC1 [Perifosine] + CC(=O)O[C@@]12CO[C@@H]1C[C@H](O)[C@@]1(C)C(=O)[C@H](O)C3=C(C)[C@@H](OC(=O)[C@H](O)[C@@H](NC(=O)OC(C)(C)C)c4ccccc4)C[C@@](O)([C@@H](OC(=O)c4ccccc4)[C@H]21)C3(C)C [Docetaxel] (partner dose 0.0005 µM),20.1,57.4,36.1,59.9,59,39.5,57.5,32.5,7.51,77.1,30.4,34.9,50.2,41.3,72.3,60.1,37.6,39.8,45.6,45.8
CCCCCCCCCCCCCCCCCCOP(=O)([O-])OC1CC[N+](C)(C)CC1 [Perifosine] + Cc1cn(-c2cc(NC(=O)c3ccc(C)c(Nc4nccc(-c5cccnc5)n4)c3)cc(C(F)(F)F)c2)cn1 [nilotinib] (partner dose 1 µM),88.2,111,120,102,134,99.1,103,106,47.3,109,93.9,110,92.6,82.9,124,118,128,124,81.6,101
CCCCCCCCCCCCCCCCCCOP(=O)([O-])OC1CC[N+](C)(C)CC1 [Perifosine] + CO[C@@H]1[C@H](N(C)C(=O)c2ccccc2)C[C@H]2O[C@]1(C)n1c3ccccc3c3c4c(c5c6ccccc6n2c5c31)C(=O)NC4 [Midostaurin] (partner dose 0.4 µM),17.8,56.4,64.1,64.2,49.3,73,48.8,66.8,34.3,30.4,22.5,42.5,49.1,56.1,53.8,59.8,49.5,24.9,27.9,63.5
CCCCCCCCCCCCCCCCCCOP(=O)([O-])OC1CC[N+](C)(C)CC1 [Perifosine] + COc1ccc(Cl)c(Nc2nc3ccccc3nc2NS(=O)(=O)c2cccc(NC(=O)C(C)(C)N)c2)c1 [XL147] (partner dose 4 µM),83.7,86.4,78.4,90.1,129,79.2,113,110,18.3,93.5,88.3,119,91.3,102,89.1,113,91.7,123,82.8,101
CCCCCCCCCCCCCCCCCCOP(=O)([O-])OC1CC[N+](C)(C)CC1 [Perifosine] + Nc1nc(F)nc2c1ncn2[C@@H]1O[C@H](CO)[C@@H](O)[C@@H]1O [fludarabine] (partner dose 1 µM),79.2,76.7,72.6,76.6,89.3,70.4,93.6,89.3,41.5,95.7,1.46,1.7,15.5,38.5,38.8,79.3,83.5,82,88.6,23.3
Cn1sc(=O)n(Cc2ccccc2)c1=O + O=C(CCCCCCC(=O)Nc1ccccc1)NO [vorinostat] (partner dose 0.4 µM),81.5,79,88.2,93.2,44.1,79.8,96.6,66.7,59,103,47.2,83.9,89.2,66.8,77.9,72.4,97.9,82.3,82.8,69.6
